Laboratory results as given in the supplement of paper PMC10126150.
Values marked as one replicate rest on one cluster of the flow cell; about a third of the high ones do not repeat.
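Also: ATP exposure 15 min at 22 °C before imaging.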

These sequences were tested on ATP (assay: switch fluorescence ratio, 500 uM ATP over buffer (Cy3 cluster intensity, sum of 5 cycles each) (fold (ratio)); higher = stronger signal-on switching upon ATP binding; sequences stand for … in TCGTCGGCAGCGTCAGATGTGTATAAGAGACAGTTTTTTTTTTTTTTTTTTTTTTTTT…TC). Details: aptamer strand: ATP DNA aptamer (quencher-CACCTGGGGGAGTATTGCGGAGGAAGG + anchor), 100 nM annealed; ATP concentration: 500 uM; one replicate.
Procedure, shortened: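 Per cluster, summed Cy3 intensity from the target cycles was divided by that from the buffer cycles to give the fluorescence ratio, then averaged per switch-domain sequence. Clusters outside 100-1000 RFU were excluded. The Cy3-labelled switching-strand clusters, on a modified Illumina MiSeq flow-cell, were annealed to 100 nM quencher-labelled ATP aptamer and imaged in selection buffer, then after 15 min with 500 uM ATP at 22 °C, for five cycles with NaOH stripping and re-annealing between them.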
AGCACTGAAG showed a switch fluorescence ratio of 0.997. AGCACTGAAT gave a switch fluorescence ratio of 1.05. With AGCAGAGGTC the switch fluorescence ratio was 0.958. For AGCAGCTATT, the switch fluorescence ratio was 1.02. With AGCAGGGGAT the switch fluorescence ratio was 1.87. Work on AGCAGGTATA yielded a switch fluorescence ratio of 0.993. Sequence AGCATATCCT has a switch fluorescence ratio of 1.12. Sequence AGCATCATGT has a switch fluorescence ratio of 1.03. With AGCATCGATT the switch fluorescence ratio was 1.02. With AGCATCTTGG the switch fluorescence ratio was 0.956. For AGCATTGTAG, the switch fluorescence ratio was 1.05. In the case of AGCATTTATT, the switch fluorescence ratio is reported as 1.03. In the case of AGCATTTGTG, the switch fluorescence ratio is reported as 1. For AGCCAAAGTC, the switch fluorescence ratio was 1. Work on AGCCAGCGTT yielded a switch fluorescence ratio of 1.02. For AGCCAGGAGT, the switch fluorescence ratio was 1.08. Work on AGCCAGTAA yielded a switch fluorescence ratio of 0.985. In the case of AGCCATTCTA, the switch fluorescence ratio is reported as 1.01. Sequence AGCCCCGGGA has a switch fluorescence ratio of 0.959. AGCCCGAATC gave a switch fluorescence ratio of 1.03. With AGCCCTTTGC the switch fluorescence ratio was 1.02. Work on AGCCGAGGTC yielded a switch fluorescence ratio of 1.06. Sequence AGCCGCGACG has a switch fluorescence ratio of 1.01. Sequence AGCCGCTCGC has a switch fluorescence ratio of 1.18. In the case of AGCCGTTAGG, the switch fluorescence ratio is reported as 1. In the case of AGCCTAATAG, the switch fluorescence ratio is reported as 1.07. With AGCCTACTGA the switch fluorescence ratio was 1.04. In the case of AGCCTATTTC, the switch fluorescence ratio is reported as 1.03. With AGCCTCTGGG the switch fluorescence ratio was 0.979. In the case of AGCCTGCATG, the switch fluorescence ratio is reported as 0.973. In the case of AGCCTTTGCT, the switch fluorescence ratio is reported as 0.978. AGCCTTTTGG showed a switch fluorescence ratio of 0.97. AGCGAATTTG was tested, and the switch fluorescence ratio was 0.993. Work on AGCGATAATG yielded a switch fluorescence ratio of 1.06. Sequence AGCGATTGTT has a switch fluorescence ratio of 0.993. In the case of AGCGCAACAT, the switch fluorescence ratio is reported as 1.47. AGCGCACACT gave a switch fluorescence ratio of 1.25. Work on AGCGCTGTTG yielded a switch fluorescence ratio of 1.02. For AGCGGAAACT, the switch fluorescence ratio was 1.01. Work on AGCGGAACCA yielded a switch fluorescence ratio of 0.97. Sequence AGCGGAAGG has a switch fluorescence ratio of 1.02. Work on AGCGGACAGC yielded a switch fluorescence ratio of 1.04. Work on AGCGGCTTAG yielded a switch fluorescence ratio of 1.11. For AGCGGCTTCG, the switch fluorescence ratio was 1.08. Work on AGCGGGGTGC yielded a switch fluorescence ratio of 1.08. Sequence AGCGGGTGCA has a switch fluorescence ratio of 1.05. Work on AGCGGTACGG yielded a switch fluorescence ratio of 1.1. Sequence AGCGGTAGC has a switch fluorescence ratio of 0.942. For AGCGGTCGGG, the switch fluorescence ratio was 0.97. Sequence AGCGTAAATT has a switch fluorescence ratio of 0.991. With AGCGTCCGAT the switch fluorescence ratio was 1.06. Work on AGCGTGTA yielded a switch fluorescence ratio of 1.02. AGCGTGTGAA was tested, and the switch fluorescence ratio was 1.07. AGCGTTCACA was tested, and the switch fluorescence ratio was 0.966. In the case of AGCGTTTTAA, the switch fluorescence ratio is reported as 1.04. In the case of AGCTAGACAT, the switch fluorescence ratio is reported as 0.971. AGCTAGGGAG showed a switch fluorescence ratio of 0.977. AGCTATGCAT was tested, and the switch fluorescence ratio was 1.03. For AGCTCCTAGC, the switch fluorescence ratio was 0.986. With AGCTCGACCA the switch fluorescence ratio was 1.06. Work on AGCTCGACGA yielded a switch fluorescence ratio of 1.02. With AGCTCTCAGT the switch fluorescence ratio was 0.995. AGCTCTCTGT showed a switch fluorescence ratio of 1.03. AGCTGAAATT was tested, and the switch fluorescence ratio was 1.08. AGCTGATGGA gave a switch fluorescence ratio of 0.992. Work on AGCTGATTCT yielded a switch fluorescence ratio of 0.969. AGCTGCGGCT showed a switch fluorescence ratio of 0.955. AGCTGCGTAT showed a switch fluorescence ratio of 0.991. AGCTGGACTA gave a switch fluorescence ratio of 1.02. In the case of AGCTGGCTCG, the switch fluorescence ratio is reported as 0.966. AGCTGGGAG gave a switch fluorescence ratio of 0.993. Work on AGCTGGGGCG yielded a switch fluorescence ratio of 1.02. Sequence AGCTGGGTGG has a switch fluorescence ratio of 0.964. AGCTGGTATG showed a switch fluorescence ratio of 0.946. Sequence AGCTGTATGT has a switch fluorescence ratio of 0.96. In the case of AGCTGTCTCC, the switch fluorescence ratio is reported as 1.24. AGCTTAAAGT gave a switch fluorescence ratio of 0.993. Sequence AGCTTCTCAC has a switch fluorescence ratio of 1.13. AGCTTGCACG was tested, and the switch fluorescence ratio was 1.06. AGCTTGCTAC gave a switch fluorescence ratio of 1. Work on AGCTTTAGCA yielded a switch fluorescence ratio of 1.01. AGGAAAAGAG was tested, and the switch fluorescence ratio was 1.01. With AGGAAAGCAG the switch fluorescence ratio was 0.992. For AGGAAATGCG, the switch fluorescence ratio was 0.981. With AGGAACAAAT the switch fluorescence ratio was 1.02. With AGGAACAACT the switch fluorescence ratio was 1.02. Work on AGGAACCCTC yielded a switch fluorescence ratio of 1.01. AGGAACGCCC gave a switch fluorescence ratio of 0.881. With AGGAACGCTG the switch fluorescence ratio was 0.945. Work on AGGAACTTCA yielded a switch fluorescence ratio of 1.04. Work on AGGAATTGTG yielded a switch fluorescence ratio of 0.996. In the case of AGGACAACAG, the switch fluorescence ratio is reported as 1.03. AGGACAAGCT showed a switch fluorescence ratio of 0.999. For AGGACCTAAA, the switch fluorescence ratio was 1.05. In the case of AGGACGAGTC, the switch fluorescence ratio is reported as 0.993. AGGACGATTG showed a switch fluorescence ratio of 1.05. Sequence AGGACGCGG has a switch fluorescence ratio of 1.1. In the case of AGGACGGCTA, the switch fluorescence ratio is reported as 1.01. AGGACGGGAA gave a switch fluorescence ratio of 1.02. In the case of AGGACGTCGG, the switch fluorescence ratio is reported as 1.06. AGGAGAAGAA gave a switch fluorescence ratio of 1. Work on AGGAGACAAA yielded a switch fluorescence ratio of 1.07. For AGGAGACGCC, the switch fluorescence ratio was 1.03. With AGGAGAGTAA the switch fluorescence ratio was 1.01. AGGAGCGAGT was tested, and the switch fluorescence ratio was 0.964. Sequence AGGAGGGAGC has a switch fluorescence ratio of 1.02. With AGGAGTCGGG the switch fluorescence ratio was 1.01. For AGGATAATAC, the switch fluorescence ratio was 1.35. With AGGATACGAG the switch fluorescence ratio was 1.09. In the case of AGGATAGTCT, the switch fluorescence ratio is reported as 1.06. In the case of AGGATCAGCG, the switch fluorescence ratio is reported as 1.02. With AGGATCGTGT the switch fluorescence ratio was 1.01. With AGGATGCGT the switch fluorescence ratio was 1.03. AGGATTAG gave a switch fluorescence ratio of 1.03. Sequence AGGATTAGAT has a switch fluorescence ratio of 1.02. In the case of AGGATTAGTT, the switch fluorescence ratio is reported as 1.02. For AGGATTATG, the switch fluorescence ratio was 0.987. In the case of AGGATTCTTC, the switch fluorescence ratio is reported as 0.961. Work on AGGATTGCCC yielded a switch fluorescence ratio of 0.988. With AGGATTGGAT the switch fluorescence ratio was 0.987. Work on AGGATTTGCG yielded a switch fluorescence ratio of 1. AGGCAAGCTG gave a switch fluorescence ratio of 1.02. In the case of AGGCAAGTCA, the switch fluorescence ratio is reported as 0.939. AGGCAATGCA gave a switch fluorescence ratio of 1.11. In the case of AGGCAGAGAT, the switch fluorescence ratio is reported as 0.979. AGGCAGCAGC was tested, and the switch fluorescence ratio was 1.06. Sequence AGGCAGCTGC has a switch fluorescence ratio of 1.01. In the case of AGGCAGGCA, the switch fluorescence ratio is reported as 1.01. AGGCAGGCGC was tested, and the switch fluorescence ratio was 1.09. For AGGCAGTACC, the switch fluorescence ratio was 1.11. In the case of AGGCAGTGCC, the switch fluorescence ratio is reported as 0.975. Sequence AGGCATGTGG has a switch fluorescence ratio of 0.971. AGGCCAACCG gave a switch fluorescence ratio of 1.01. With AGGCCACCTC the switch fluorescence ratio was 1.03. Work on AGGCCAGGTC yielded a switch fluorescence ratio of 1.08. For AGGCCCGACT, the switch fluorescence ratio was 0.977. With AGGCCCGCCC the switch fluorescence ratio was 0.989. In the case of AGGCCGTGTG, the switch fluorescence ratio is reported as 1.05. AGGCCGTTTT gave a switch fluorescence ratio of 0.99. With AGGCCTTTGT the switch fluorescence ratio was 0.993. For AGGCGAAAGC, the switch fluorescence ratio was 0.972. AGGCGAAGGT gave a switch fluorescence ratio of 1.02. AGGCGACGTC showed a switch fluorescence ratio of 1.01. For AGGCGATACG, the switch fluorescence ratio was 1.12. Sequence AGGCGCGAGG has a switch fluorescence ratio of 1.02. AGGCGGGTG showed a switch fluorescence ratio of 1.02. For AGGCGGTTGT, the switch fluorescence ratio was 0.993. With AGGCGTTACG the switch fluorescence ratio was 1.02. AGGCTAGAAT showed a switch fluorescence ratio of 0.951. AGGCTAGGGT was tested, and the switch fluorescence ratio was 0.967. In the case of AGGCTAGTAT, the switch fluorescence ratio is reported as 1. AGGCTCGTTT gave a switch fluorescence ratio of 0.994. For AGGCTGAGGT, the switch fluorescence ratio was 0.996. In the case of AGGCTGGGAA, the switch fluorescence ratio is reported as 1.01. With AGGCTGGGTC the switch fluorescence ratio was 1.02. Sequence AGGCTTAGTA has a switch fluorescence ratio of 1.04. Work on AGGCTTCGGG yielded a switch fluorescence ratio of 0.994. For AGGCTTGAGA, the switch fluorescence ratio was 1.01. Sequence AGGCTTGAGC has a switch fluorescence ratio of 1.07. For AGGCTTTTTA, the switch fluorescence ratio was 0.984. Work on AGGGAAGGTA yielded a switch fluorescence ratio of 1.01. AGGGAATAAG gave a switch fluorescence ratio of 1.03. Work on AGGGACAGTT yielded a switch fluorescence ratio of 1.02. In the case of AGGGACATCT, the switch fluorescence ratio is reported as 1.13. AGGGACCCAC was tested, and the switch fluorescence ratio was 1.21. AGGGAGATCC was tested, and the switch fluorescence ratio was 1.01. AGGGAGCCAG was tested, and the switch fluorescence ratio was 0.985. AGGGAGTGG was tested, and the switch fluorescence ratio was 0.967. AGGGAGTGGC was tested, and the switch fluorescence ratio was 1.06. With AGGGATATGA the switch fluorescence ratio was 1.18. With AGGGATCGGA the switch fluorescence ratio was 0.99. AGGGATTTAC showed a switch fluorescence ratio of 1. Sequence AGGGCACTCT has a switch fluorescence ratio of 1.02. AGGGCAGAA showed a switch fluorescence ratio of 1.04. For AGGGCATCAG, the switch fluorescence ratio was 1.02. Work on AGGGCCAAAG yielded a switch fluorescence ratio of 1. AGGGCCCTAA gave a switch fluorescence ratio of 0.985. For AGGGCCCTGA, the switch fluorescence ratio was 0.974. AGGGCCTATA was tested, and the switch fluorescence ratio was 0.957. AGGGCCTCAG showed a switch fluorescence ratio of 1.06. AGGGCGATTG was tested, and the switch fluorescence ratio was 1. AGGGCGCCAT showed a switch fluorescence ratio of 1.02. AGGGCGGAAC showed a switch fluorescence ratio of 1. Sequence AGGGCGGTAC has a switch fluorescence ratio of 1.21. Sequence AGGGCTGGCC has a switch fluorescence ratio of 1.02. AGGGGACAAG gave a switch fluorescence ratio of 1.04. Work on AGGGGACGGT yielded a switch fluorescence ratio of 0.999. For AGGGGAGCCG, the switch fluorescence ratio was 0.959. AGGGGCACAG gave a switch fluorescence ratio of 0.967. For AGGGGCATAT, the switch fluorescence ratio was 1.07. In the case of AGGGGCCAGG, the switch fluorescence ratio is reported as 1.09. AGGGGGATCC showed a switch fluorescence ratio of 1.02. AGGGGGCCTC showed a switch fluorescence ratio of 1.04. In the case of AGGGGTAATG, the switch fluorescence ratio is reported as 0.996. Work on AGGGGTGGTG yielded a switch fluorescence ratio of 0.963. AGGGGTTGCA gave a switch fluorescence ratio of 0.952. In the case of AGGGTCAATA, the switch fluorescence ratio is reported as 0.972. AGGGTCAATT gave a switch fluorescence ratio of 1.06. Sequence AGGGTCATAG has a switch fluorescence ratio of 0.984. For AGGGTCCCAT, the switch fluorescence ratio was 1.03.
